{
  "source": "patent US20100183584A1",
  "about": "(UNIVERSITY OF MIAMI, published 2010)",
  "binders": {"B1": {"name": "GST (other)", "chain": "not shown", "notes": "Negative control in pull-down and FRET assays; also called GST alone; immobilized GST"}},
  "molecular_target": "T1, native RGS7-Gβ5 complex from mouse brain extract (mouse, UniProt P62881 1-353; O54829 1-469, limits assumed)",
  "T1 construct": "Native complex in a cholate extract of brain membranes; may also carry R7BP; also called native Gβ5-RGS7; Gβ5-RGS complexes (brain)",
  "T1 sequence (looked up) 1": "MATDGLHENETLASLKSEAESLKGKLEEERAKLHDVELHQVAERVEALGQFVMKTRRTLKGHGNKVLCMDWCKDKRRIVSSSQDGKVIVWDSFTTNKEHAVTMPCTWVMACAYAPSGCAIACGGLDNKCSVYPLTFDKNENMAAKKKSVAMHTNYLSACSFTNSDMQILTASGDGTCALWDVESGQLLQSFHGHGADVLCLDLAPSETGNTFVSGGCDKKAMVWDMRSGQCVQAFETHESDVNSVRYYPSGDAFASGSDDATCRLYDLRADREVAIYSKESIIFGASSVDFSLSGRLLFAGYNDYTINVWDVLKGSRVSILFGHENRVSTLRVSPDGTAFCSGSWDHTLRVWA",
  "T1 sequence (looked up) 2": "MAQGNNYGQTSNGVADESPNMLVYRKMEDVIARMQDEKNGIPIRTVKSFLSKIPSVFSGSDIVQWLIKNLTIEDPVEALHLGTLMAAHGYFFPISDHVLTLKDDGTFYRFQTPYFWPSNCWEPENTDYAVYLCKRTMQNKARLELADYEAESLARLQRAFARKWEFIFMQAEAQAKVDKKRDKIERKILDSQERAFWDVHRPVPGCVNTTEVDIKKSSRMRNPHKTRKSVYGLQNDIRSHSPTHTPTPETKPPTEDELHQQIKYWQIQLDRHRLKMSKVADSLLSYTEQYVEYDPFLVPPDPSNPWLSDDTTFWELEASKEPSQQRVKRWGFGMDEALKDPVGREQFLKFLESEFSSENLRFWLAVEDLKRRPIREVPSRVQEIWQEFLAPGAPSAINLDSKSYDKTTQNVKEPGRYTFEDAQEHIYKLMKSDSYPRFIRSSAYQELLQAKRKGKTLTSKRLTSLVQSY",
  "test": "GST pull-down from mouse brain extract, western blot with anti-RGS7 and anti-Gβ5; D: densitometry [1B, 1D]",
  "data": [
    {"binder": "B1", "values": [
      {"measurement": "binding result", "value": "no binding"}
    ]}
  ]
}
